According to PubChem BioAssay AID504333 (National Center for Advancing Translational Sciences (NCATS), 2011):
Values joined by “and” are separate entries in the source; they are usually repeats but may differ in a detail not shown here. Equal values may be shown once. Out of some 360,000 compounds screened, about 16,000 (4.4%) were called active. Inconclusive results, whose numbers are uncertain, are shown with a selection of clear calls. Calls follow the shape of the dose curve; as a rule, active = well fitted inhibition curve with a large enough effect; inconclusive = small, poorly fitted or top-dose-only effect; inactive = no such curve, though single readings can be large or run the other way. A potency beside an inconclusive call is a rough fit, not a confirmed value.

Biological target: Bromodomain adjacent to zinc finger domain protein 2B (Homo sapiens) (UniProt Q9UIF8)
UniProt Q9UIF8, sequence (Q9UIF8 whole entry, looked up, the tested form may be a part): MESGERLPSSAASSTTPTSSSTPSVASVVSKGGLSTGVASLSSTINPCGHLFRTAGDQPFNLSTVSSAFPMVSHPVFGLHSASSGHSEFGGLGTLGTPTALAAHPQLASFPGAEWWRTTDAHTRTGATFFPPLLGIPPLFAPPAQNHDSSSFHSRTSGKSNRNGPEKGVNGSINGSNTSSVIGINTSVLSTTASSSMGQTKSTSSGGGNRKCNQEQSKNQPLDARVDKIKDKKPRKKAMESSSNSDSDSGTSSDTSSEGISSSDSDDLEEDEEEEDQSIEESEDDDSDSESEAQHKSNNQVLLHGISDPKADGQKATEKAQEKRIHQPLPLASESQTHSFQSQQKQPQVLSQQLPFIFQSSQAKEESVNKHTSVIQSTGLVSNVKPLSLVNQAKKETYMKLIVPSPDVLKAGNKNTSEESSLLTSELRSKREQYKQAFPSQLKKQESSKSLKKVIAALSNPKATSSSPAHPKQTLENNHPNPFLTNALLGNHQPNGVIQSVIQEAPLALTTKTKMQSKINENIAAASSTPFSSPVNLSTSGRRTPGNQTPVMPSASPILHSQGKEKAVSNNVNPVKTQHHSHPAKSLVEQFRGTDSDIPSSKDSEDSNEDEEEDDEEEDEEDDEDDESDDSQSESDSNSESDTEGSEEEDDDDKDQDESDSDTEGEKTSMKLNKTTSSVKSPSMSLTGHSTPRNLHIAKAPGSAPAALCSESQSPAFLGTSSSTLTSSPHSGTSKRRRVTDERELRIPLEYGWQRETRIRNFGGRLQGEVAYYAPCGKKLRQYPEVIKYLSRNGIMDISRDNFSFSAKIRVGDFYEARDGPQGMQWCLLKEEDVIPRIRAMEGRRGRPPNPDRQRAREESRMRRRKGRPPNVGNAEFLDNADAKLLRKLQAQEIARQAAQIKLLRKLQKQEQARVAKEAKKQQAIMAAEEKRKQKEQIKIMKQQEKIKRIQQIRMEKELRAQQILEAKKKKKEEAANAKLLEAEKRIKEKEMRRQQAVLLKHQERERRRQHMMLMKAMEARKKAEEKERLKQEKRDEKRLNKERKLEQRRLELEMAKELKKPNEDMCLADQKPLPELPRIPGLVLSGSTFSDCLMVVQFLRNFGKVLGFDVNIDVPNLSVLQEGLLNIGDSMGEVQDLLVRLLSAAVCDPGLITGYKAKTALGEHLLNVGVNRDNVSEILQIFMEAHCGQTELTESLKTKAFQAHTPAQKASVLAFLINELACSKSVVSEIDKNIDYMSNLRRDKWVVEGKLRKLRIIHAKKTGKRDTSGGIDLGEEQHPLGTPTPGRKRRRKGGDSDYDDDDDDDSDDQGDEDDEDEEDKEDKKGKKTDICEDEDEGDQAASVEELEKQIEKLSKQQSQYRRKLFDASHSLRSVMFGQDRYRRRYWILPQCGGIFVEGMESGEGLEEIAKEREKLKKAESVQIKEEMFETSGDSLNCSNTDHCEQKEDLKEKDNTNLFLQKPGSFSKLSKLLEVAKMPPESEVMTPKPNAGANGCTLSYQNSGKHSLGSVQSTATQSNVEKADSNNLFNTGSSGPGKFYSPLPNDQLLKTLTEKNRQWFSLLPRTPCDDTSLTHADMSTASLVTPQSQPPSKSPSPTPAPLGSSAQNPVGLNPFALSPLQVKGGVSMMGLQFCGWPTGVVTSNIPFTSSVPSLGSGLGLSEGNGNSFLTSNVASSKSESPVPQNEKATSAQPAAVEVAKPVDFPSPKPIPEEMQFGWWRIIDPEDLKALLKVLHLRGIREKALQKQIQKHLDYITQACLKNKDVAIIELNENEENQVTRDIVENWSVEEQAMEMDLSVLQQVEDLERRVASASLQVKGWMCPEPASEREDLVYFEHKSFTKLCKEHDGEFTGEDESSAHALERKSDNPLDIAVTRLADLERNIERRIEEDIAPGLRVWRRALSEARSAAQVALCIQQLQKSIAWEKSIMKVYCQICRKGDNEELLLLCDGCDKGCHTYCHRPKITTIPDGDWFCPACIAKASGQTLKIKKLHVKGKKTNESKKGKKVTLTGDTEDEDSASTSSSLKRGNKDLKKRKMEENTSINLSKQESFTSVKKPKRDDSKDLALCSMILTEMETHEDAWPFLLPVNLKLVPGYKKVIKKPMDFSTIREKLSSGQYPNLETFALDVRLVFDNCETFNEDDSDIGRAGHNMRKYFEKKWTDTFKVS
Experiment: qHTS Assay for Inhibitors of BAZ2B; also: nearly all actives have a fitted effect of over 60% in size
Settings: AlphaScreen BAZ2B-H3K14Ac peptide displacement; activity change, negative = inhibition: at 114 µM (top of the series) unless noted
How it was run: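 BAZ2B 50 nM plus b-H3(5-23)K14Ac 50 nM, PBS pH 7.4/0.01% Tween-20, 30 min RT; compound added (max 110 uM), 30 min RT; streptavidin donor/Ni-chelate acceptor beads 10 ug/mL final, 20 min dark; AlphaScreen read.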
% is scaled to controls: 0 for no effect and ±100 for the full control effect; potency is read from the fitted curve at half-maximal effect; tags tell the direction and shape of the fitted curve.

Compound | Potency | activity change, negative = inhibition
CCN(CC)CC(O)CN1c2ccccc2Sc2ccccc21 (stereo unspecified) | inconclusive: 79.4 µM [inhibitor, single point] | 
CC(C(=O)Nc1ccccc1F)N1CCN(C)CC1 (stereo unspecified) | active: 50.1 µM | 
COc1ccc(C)cc1Nc1nc(N)c2cc(OC)c(OC)cc2n1 | inconclusive: 44.7 µM [inhibitor, partial curve] and inconclusive: 50.1 µM [inhibitor, partial curve] | 
CC(=O)c1cccc(NC(=O)c2nc(-c3ccccc3)n(-c3ccccc3C)n2)c1 |  | inactive: -8.8%
O=C1c2ccc(Cl)cc2S(=O)(=O)c2cccc(C(=O)N3CCN(c4ccc(Cl)cn4)CC3)c21 | inconclusive: 44.7 µM [inhibitor, partial curve] | 
COc1ccc(C2c3cccn3CCN2S(=O)(=O)c2ccc([N+](=O)[O-])cc2)cc1 (stereo unspecified) | inconclusive: 10 µM [inhibitor, full curve] | 
CCCCCN1C=CC=C/C1=C\C=C(C#N)C#N | inconclusive: 89.1 µM [inhibitor, single point] | 
COc1ccc(Cl)cc1Nc1nc(C)nc2c1oc1ccccc12 | inconclusive: 89.1 µM [inhibitor, single point] | 
COCCN1CCN(Cc2ccc(C(=O)NC(C)C)cc2)C(=O)C1=O |  | inactive: -6.15%
CC(C)(C)NC(=O)CSc1nncn1NCc1cccc2ccccc12 | inconclusive: 100 µM [inhibitor, single point] | 
Cc1cc(C)n(-c2nc3sc4c(c3c3nnc(SCC(N)=O)n23)CC(C)(C)OC4)n1 |  | inactive: -3.76%
COc1cccc(NC(=O)Cc2cccs2)c1 |  | inactive: 5.64%
CCOc1ccccc1-n1c(SCC(=O)N2CCOCC2)nnc1-c1ccccn1 |  | inactive: -33.5%
Cn1c(CCC(=O)O)nc2cc(S(=O)(=O)N3CCCCC3)ccc21 |  | inactive: -19.4%
COc1ccc(CN2CCN(C(=O)c3cc(-c4cccnc4)nc4ccc(Cl)cc34)CC2)c(OC)c1OC | inconclusive: 70.8 µM [inhibitor, single point] | 
CCN1CCCc2cc(CN(CCN3CCOCC3)C(=S)Nc3ccc(OC)cc3)ccc21 |  | inactive: -29%
Cc1cc(Br)cc(/C=N/NC(=O)c2ccc3c(c2)OCO3)c1O | inconclusive: 89.1 µM [inhibitor, single point] | 
CCOc1ccc(CSC(CC(=O)O)C(=O)O)cc1 (stereo unspecified) | active: 79.4 µM | 
O=C(O)C1CC(c2ccccc2F)=NO1 (stereo unspecified) | inconclusive: 100 µM [inhibitor, single point] | 
CC(C)c1ccc(CN(C(=O)C2COc3ccccc3O2)C2CCS(=O)(=O)C2)cc1 (stereo unspecified) |  | inactive: -7.05%
Oc1ccc(C[C@H]2CNCCN2CCCCC2CCCCC2)cc1 | inconclusive: 89.1 µM [inhibitor, single point] | 
CN(c1ncc(C(F)(F)F)cc1Cl)n1cc(C(N)=O)c2ccccc2c1=O | inconclusive: 35.5 µM [inhibitor, single point] | 
C=CCSc1nnc(NC(=O)c2nc(SCC)ncc2Cl)s1 |  | inactive: -26.8%
CCN(c1ccccc1)S(=O)(=O)c1cc(C(=O)OC(C)C(=O)Nc2ccc3c(c2)OCCO3)ccc1C (stereo unspecified) | inconclusive: 44.7 µM [inhibitor, partial curve] | 

Compound | Potency | activity change, negative = inhibition
CCOc1ccc(NC(=S)N(CCc2c(C)[nH]c3ccc(C)cc23)Cc2cccnc2)cc1 | inconclusive: 39.8 µM [inhibitor, partial curve] | 
Cc1ccc(-n2c(C)cc(C(=S)N3CCOCC3)c2C)cc1C | active: 50.1 µM | 
O=C(c1ccccc1C(=O)N1CCN(c2ccc(F)cc2)CC1)N1CCN(c2ccc(F)cc2)CC1 | inconclusive: 79.4 µM [inhibitor, single point] | 
CCN(CC)CCN1c2ccccc2Sc2ccccc21 | active: 70.8 µM | 
CN1C(=O)/C(=C/c2ccco2)SC1=Nc1cccc(C(=O)O)c1 | active: 50.1 µM | 
COCCn1c(C)cc(/C=N/NC(=O)c2cccnc2)c1C | inconclusive: 79.4 µM [inhibitor, single point] | 
C/C(=N\Nc1ccc(C)c(Cl)c1)c1ccncc1 | inconclusive: 56.2 µM [inhibitor, partial curve] | 
c1ccc(COC2CCCN(Cc3nc(-c4cccs4)no3)C2)nc1 (stereo unspecified) | inconclusive: 89.1 µM [inhibitor, single point] | 
COc1ccc(NC(=O)Nc2ccc3c(c2)OCO3)c(C)c1 |  | inactive: 0.378%
Cc1ccc(NC(=S)Nc2ncccc2C)c(C)c1 | active: 44.7 µM | 
CCCCn1c(=O)c(CCC(=O)OCC(=O)Nc2cc(Cl)ccc2OC)nc2ccccc21 |  | inactive: 6.34%
CCc1ccc(C(=O)NC2=NC(c3ccccc3F)CC(=O)N2)cc1 (stereo unspecified) |  | inactive: -20%
Cn1cnc(S(=O)(=O)N2CCCC(C(=O)Nc3ccc(OC(F)(F)F)cc3)C2)c1 (stereo unspecified) |  | inactive: -3.86%
C=CCn1c(O)c(N=NC(=O)OC(C)(C)C)c2ccccc21 |  | inactive: -4.24%
CC(C)Oc1ccccc1OCCN(C)C | active: 44.7 µM | 
CCCC1=NN2C(=N)/C(=C\c3ccc(OCCOc4ccc(NC(C)=O)cc4)c(OC)c3)C(=O)N=C2S1 | inconclusive: 79.4 µM [inhibitor, single point] | 
CCCCN1C(=O)/C(=c2\sc3nc(=O)c(-c4ccccc4)nn3c2=O)c2ccccc21 | inconclusive: 89.1 µM [inhibitor, single point] | 
Cn1c(=O)n(Cc2ccccc2)c(=O)c2c1nc1n2CCN1Cc1ccco1 | inconclusive: 70.8 µM [inhibitor, partial curve] | 
COc1ccc(OCc2cc(C(=O)N3CCCC(CO)C3)no2)c2ccccc12 (stereo unspecified) | inconclusive: 39.8 µM [inhibitor, partial curve] | 
COc1ccc(N2CCN(C(=O)Cc3ccc(Cl)cc3)CC2)cc1 | inconclusive: 44.7 µM [inhibitor, partial curve] | 
O=C(Nc1ccc(C2=NCCN2)cc1)c1ccc(C(=O)Nc2ccc(C3=NCCN3)cc2)c([N+](=O)[O-])c1 | inconclusive: 44.7 µM [inhibitor, partial curve] | 
CC1(C)CN=c2s/c(=C\c3ccc(Cl)cc3)c(=O)n2C1 | inconclusive: 79.4 µM [inhibitor, single point] | 
COc1ccc(N2CCN(C(=O)CCS(=O)(=O)c3ccc4c(c3)CCN4C(=O)C3CC3)CC2)cc1 | inconclusive: 56.2 µM [inhibitor, partial curve, poor fit] | 
Cc1cc(C)c(NC(=O)Cn2c(=O)n(Cc3ccc(C(=O)NCc4ccco4)cc3)c(=O)c3sccc32)c(C)c1 | active: 50.1 µM | 

Compound | Potency | activity change, negative = inhibition
O=[N+]([O-])c1ccc(/C=N/NC(=S)Nc2ccccc2F)o1 | inconclusive: 44.7 µM [inhibitor, partial curve] | 
CCOC(=O)C1(CCCc2ccccc2)CCN(Cc2ccn[nH]2)CC1 |  | inactive: -18.1%
COc1ccc(-n2cnc3scc(-c4ccc(OC)c(OC)c4)c3c2=O)cc1 | inconclusive: 79.4 µM [inhibitor, single point] | 
COc1ccc(NC(=O)CSc2nnc(Cc3cccn3C)n2-c2ccc(OC)cc2)cc1 | active: 50.1 µM | 
CCOC(=O)c1ccc(NC(=O)c2c(NCc3cccc(OC)c3OC)sc3c2CCC3)cc1 |  | inactive: 0.511%
CCOc1ccccc1NC(=S)/C(=C(\[O-])c1ccc2c(c1)OCCO2)[n+]1ccc(CC)cc1 | inconclusive: 31.6 µM [inhibitor, partial curve] | 
COc1ccccc1N1CCN(C(=O)CSc2nc(-c3ccco3)cc(C(F)(F)F)n2)CC1 | inconclusive: 89.1 µM [inhibitor, single point] | 
CCCSc1ncc(Cl)c(C(=O)N2CCN(c3ccc(OC)cc3)CC2)n1 | active: 35.5 µM | 
Cc1cccc(NC(=O)c2ccc([N+](=O)[O-])s2)n1 | inconclusive: 44.7 µM [inhibitor, partial curve] | 
CC(NC(=O)C1CCN(C(=O)[C@@H]2Cc3ccccc3CN2C(=O)OC(C)(C)C)CC1)c1ccccc1 (stereo partly specified) | inconclusive: 89.1 µM [inhibitor, single point] | 
Oc1ccc(-c2nc(-c3ccc(O)c(O)c3)cs2)cc1 | inconclusive: 39.8 µM [inhibitor, partial curve] | 
CC(=O)Nc1ccc2c(c1)ncn2C |  | inactive: -1.27%
O=C(Nc1ccc(Oc2ccccc2)nc1)C1CCCCN1Cc1ccco1 (stereo unspecified) | inconclusive: 79.4 µM [inhibitor, single point] | 
Cc1cccc(-c2nc(C#N)c(N3CCC(C)CC3)o2)c1 |  | inactive: 11.1%
Cc1cc(CNC(=O)c2cccc([N+](=O)[O-])c2)c2ccccc2n1 | inconclusive: 89.1 µM [inhibitor, single point] | 
O=C(NCC1c2ccccc2CCN1C(=O)CN1C(=O)c2ccccc2C1=O)C1CCCCC1 (stereo unspecified) | inconclusive: 89.1 µM [inhibitor, single point] | 
NNc1nc(-c2ccccc2)cc(-c2ccccc2O)n1 | active: 50.1 µM | 
NCc1nc(-c2ccc(Cl)cc2)no1 |  | inactive: -23.6%
COc1ccc(C)cc1NC(=O)CCN1CCN(C/C=C/c2ccccc2)CC1 | inconclusive: 79.4 µM [inhibitor, single point] | 
Cc1c(C)n(Cc2ccc(F)cc2)c2ccc(C(=O)N3CCN(c4ccccn4)CC3)cc12 | inconclusive: 10 µM [inhibitor, full curve] | 
O=C(c1ccccc1[N+](=O)[O-])n1cnc2ccccc21 | inconclusive: 79.4 µM [inhibitor, single point] | 
CCc1ccccc1NC(=O)CSc1nc2c(c(=O)[nH]1)CN(Cc1ccccc1OC)CC2 |  | inactive: 3.77%
c1ccc2[nH]c(CSc3nnc(-c4ccncc4)o3)nc2c1 | inconclusive: 100 µM [inhibitor, single point] | 
